Each structure is given as a SMILES string. About 300 (9.4%) of roughly 3,200 compounds showed activity. The list shows a part of the results, in another mix than the full data.

The test system of this assay is A673/TR/shEF. In words: cell viability (LOESS-normalised, relative to median of negative controls) (log2 ratio); higher = more viable cells (less compound effect), active = hit call of the paper (over 3 MAD below the median). The note with it: treatment time: 72 h. Summed up:
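For three days, A673/TR/shEF Ewing sarcoma cells in 384-well plates (1,500 per well) were treated with library compounds at two or more concentrations or with DMSO controls, after doxycycline had been added or withheld 24 h beforehand to induce EWS-FLI1 shRNA knockdown. Viability was read by CellTiter-Glo luminescence on an Envision reader. The data were LOESS-corrected per plate, divided by the median of negative controls and log2-transformed.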

[1] abbreviates: 0.25 µM, library screen: screen1, EWS-FLI1 expression: high (no doxycycline).
Where [2] appears, read: 0.25 µM, library screen: screen1, EWS-FLI1 expression: low (doxycycline-induced shRNA knockdown).
Where [3] appears, read: 2.5 µM, library screen: screen1, EWS-FLI1 expression: high (no doxycycline).
[4] abbreviates: 2.5 µM, library screen: screen1, EWS-FLI1 expression: low (doxycycline-induced shRNA knockdown).
The mark [5] stands for this setting: 0.25 µM, library screen: screen2, EWS-FLI1 expression: high (no doxycycline).
Setting [6] is: 0.25 µM, library screen: screen2, EWS-FLI1 expression: low (doxycycline-induced shRNA knockdown).
The mark [7] stands for this setting: 2.5 µM, library screen: screen2, EWS-FLI1 expression: high (no doxycycline).
Where [8] appears, read: 2.5 µM, library screen: screen2, EWS-FLI1 expression: low (doxycycline-induced shRNA knockdown).
Where [9] appears, read: 0.103 µM, library screen: screen3, EWS-FLI1 expression: high (no doxycycline).
[10] abbreviates: 0.103 µM, library screen: screen3, EWS-FLI1 expression: low (doxycycline-induced shRNA knockdown).
Setting [11] is: 0.308 µM, library screen: screen3, EWS-FLI1 expression: high (no doxycycline).
Setting [12] is: 0.308 µM, library screen: screen3, EWS-FLI1 expression: low (doxycycline-induced shRNA knockdown).
[13] abbreviates: 0.926 µM, library screen: screen3, EWS-FLI1 expression: high (no doxycycline).
Where [14] appears, read: 0.926 µM, library screen: screen3, EWS-FLI1 expression: low (doxycycline-induced shRNA knockdown).
[15] abbreviates: 2.8 µM, library screen: screen3, EWS-FLI1 expression: high (no doxycycline).
The mark [16] stands for this setting: 2.8 µM, library screen: screen3, EWS-FLI1 expression: low (doxycycline-induced shRNA knockdown).
Setting [17] is: 8.3 µM, library screen: screen3, EWS-FLI1 expression: high (no doxycycline).
Where [18] appears, read: 8.3 µM, library screen: screen3, EWS-FLI1 expression: low (doxycycline-induced shRNA knockdown).
[19] abbreviates: 25 µM, library screen: screen3, EWS-FLI1 expression: high (no doxycycline).
Where [20] appears, read: 25 µM, library screen: screen3, EWS-FLI1 expression: low (doxycycline-induced shRNA knockdown).

In the case of `O=C(O)C(O)C(O)C(O)C(O)C(=O)O` (centres undefined), the “cell viability (log2)” value runs as follows: under setting [1], inactive: 0.0508; under setting [2], inactive: 0.00381; under setting [3], inactive: 0.102; under setting [4], inactive: 0.133.

In the case of `CC12CCC(CC1)C(C)(C)O2`, the “cell viability (log2)” value is inactive: 0.137 under setting [1], inactive: 0.0292 under setting [2], inactive: 0.175 under setting [3] and inactive: -0.00197 under setting [4].

For `CC(C)(C)c1onc(OCP(=O)(O)O)c1CC(N)C(=O)O` (centres undefined), the “cell viability (log2)” value is inactive: -0.0656 under setting [5], inactive: 0.0767 under setting [6], inactive: 0.0137 under setting [7] and inactive: 0.0837 under setting [8].

For `C[C@H](CCC(=O)O)[C@H]1CC[C@H]2[C@@H]3CC[C@@H]4C[C@H](O)CC[C@]4(C)[C@H]3C[C@H](O)[C@]12C`, the “cell viability (log2)” value is, setting by setting: under setting [1], inactive: 0.0519; under setting [2], inactive: 0.0395; under setting [3], inactive: 0.109; under setting [4], inactive: 0.158.

Turning to `CC(C)C[C@@H]1NC(=O)[C@H](CCCN)NC(=O)[C@H](C(C)C)NC(=O)[C@H](Cc2ccc(O)cc2)N[C@@H](CCC(=O)O)C(=O)N[C@@H](CC(N)=O)C(=O)[C@@H](Cc2ccccc2)NC(=O)[C@H](Cc2ccccc2)NC(=O)[C@@H]2CCCN2C(=O)[C@@H](Cc2ccccc2)NC1=O`, the “cell viability (log2)” value by setting is: under setting [1], active: -0.767; under setting [2], inactive: -0.0111; under setting [3], active: -2.84; under setting [4], active: -2.45.

Take `Nc1ncnc2c1c(I)cn2[C@@H]1O[C@H](CO)[C@@H](O)[C@H]1O`: the “cell viability (log2)” value reads like this: (0.025 µM, library screen: screen1, EWS-FLI1 expression: high (no doxycycline)) inactive: 0.145; (0.025 µM, library screen: screen1, EWS-FLI1 expression: low (doxycycline-induced shRNA knockdown)) inactive: -0.151; under setting [1], inactive: -0.0341; under setting [2], inactive: -0.172; under setting [3], active: -1.08; under setting [4], active: -0.349. In addition, the “cell viability (log2)” value is active: -2.42 (25 µM, library screen: screen1, EWS-FLI1 expression: high (no doxycycline)) and active: -2.11 (25 µM, library screen: screen1, EWS-FLI1 expression: low (doxycycline-induced shRNA knockdown)).

`COc1ccc2cc(C(C)C(=O)O)ccc2c1` (centres undefined): the “cell viability (log2)” value runs as follows: under setting [1], inactive: 0.0554; under setting [2], inactive: 0.0714; under setting [3], inactive: 0.131; under setting [4], inactive: 0.033.

Regarding `CN(C)C(=O)Nc1ccc(Cl)c(Cl)c1`, the “cell viability (log2)” value by setting is: under setting [1], inactive: 0.0696; under setting [2], inactive: 0.0695; under setting [3], inactive: 0.0795; under setting [4], inactive: 0.139.

As for `CCCC(=O)NCCc1c2n(c3ccc(OC)cc13)CCCc1ccccc1-2`, the “cell viability (log2)” value under setting [5] was inactive: 0.11, the “cell viability (log2)” value under setting [6] is inactive: 0.046, the “cell viability (log2)” value under setting [7] was inactive: 0.0499 and the “cell viability (log2)” value under setting [8] was inactive: 0.00193.

For `O=C1CC2(CCCC2)CC(=O)N1CCCCN1CCN(c2ncccn2)CC1`, the “cell viability (log2)” value is inactive: 0.236 under setting [5], inactive: 0.106 under setting [6], inactive: 0.0827 under setting [7] and inactive: 0.0819 under setting [8].

Regarding `CN/C(=C\[N+](=O)[O-])NCCSCc1csc(CN(C)C)n1`, the “cell viability (log2)” value is inactive: 0.0355 under setting [9]; inactive: 0.0488 under setting [10]; inactive: 0.0529 under setting [11]; inactive: 0.059 under setting [12]; inactive: 0.057 under setting [13]; inactive: 0.0342 under setting [14]. Further, the “cell viability (log2)” value by setting is: under setting [15], inactive: 0.051; under setting [16], inactive: 0.073; under setting [17], inactive: -0.00893; under setting [18], inactive: 0.105; under setting [19], inactive: 0.0579; under setting [20], inactive: 0.109.

In the case of `Cc1cc(C)c(/C=C2\C(=O)Nc3ccccc32)[nH]1`, the “cell viability (log2)” value is inactive: 0.184 under setting [5], inactive: -0.145 under setting [6], inactive: 0.119 under setting [7] and inactive: -0.1 under setting [8].

Turning to `CC1(C)CC[C@]2(C(=O)O)CC[C@]3(C)C(=CC[C@@H]4[C@@]5(C)CC[C@H](O)[C@@](C)(CO)[C@@H]5CC[C@]43C)[C@@H]2C1`, the “cell viability (log2)” value is inactive: 0.0983 under setting [1], inactive: 0.0272 under setting [2], inactive: 0.173 under setting [3] and inactive: -0.0385 under setting [4].

On to `CCn1ccnc1CC1COc2ccccc2O1` (centres undefined), for which the “cell viability (log2)” value under setting [5] was inactive: 0.127, the “cell viability (log2)” value under setting [6] is inactive: 0.0875, the “cell viability (log2)” value under setting [7] is inactive: 0.132 and the “cell viability (log2)” value under setting [8] is inactive: 0.116.

For the compound `COc1ccc(-c2c(OC)c3c(OC)c4c(cc3oc2=O)OC(C)(C)C=C4)cc1`, the “cell viability (log2)” value is, setting by setting: under setting [1], inactive: 0.0786; under setting [2], inactive: 0.00334; under setting [3], inactive: 0.211; under setting [4], inactive: 0.00828.

As for `C=CCN1CCc2c(cc(O)c(O)c2Br)[C@@H](c2ccccc2)C1`, the “cell viability (log2)” value by setting is: under setting [5], inactive: 0.181; under setting [6], inactive: 0.124; under setting [7], inactive: 0.146; under setting [8], inactive: 0.0914.

`N[C@H](C(=O)O)c1cc(O)cc(O)c1`: the “cell viability (log2)” value under setting [5] is inactive: 0.128, the “cell viability (log2)” value under setting [6] is inactive: 0.0321, the “cell viability (log2)” value under setting [7] was inactive: 0.139 and the “cell viability (log2)” value under setting [8] was inactive: 0.0849.

Take `Cc1cccc(C#Cc2ccccc2)n1`: the “cell viability (log2)” value by setting is: under setting [5], inactive: 0.0606; under setting [6], inactive: 0.0657; under setting [7], inactive: 0.137; under setting [8], inactive: 0.111.

Take `OC[C@H]1N[C@H](CO)[C@@H](O)[C@@H]1O`: the “cell viability (log2)” value is, setting by setting: under setting [5], inactive: 0.176; under setting [6], inactive: 0.0684; under setting [7], inactive: 0.108; under setting [8], inactive: 0.0354.

Take `O=c1cc[nH]c(=S)[nH]1`: the “cell viability (log2)” value reads like this: under setting [1], inactive: 0.106; under setting [2], inactive: 0.0599; under setting [3], inactive: 0.112; under setting [4], inactive: 0.00736.

For the compound `CCC(C(=O)O)c1ccccc1` (centres undefined), the “cell viability (log2)” value is, setting by setting: under setting [1], inactive: 0.0972; under setting [2], inactive: 0.00275; under setting [3], inactive: 0.117; under setting [4], inactive: -0.0183.

As for `COc1cc2c(Oc3ccc4[nH]c(C)cc4c3F)ncnc2cc1OCCCN1CCCC1`, the “cell viability (log2)” value runs as follows: under setting [9], inactive: 0.0825; under setting [10], inactive: 0.0561; under setting [11], inactive: 0.034; under setting [12], inactive: 0.013; under setting [13], inactive: 0.0586; under setting [14], inactive: 0.0142. Further, the “cell viability (log2)” value reads like this: under setting [15], inactive: 0.0459; under setting [16], inactive: 0.0297; under setting [17], inactive: -0.077; under setting [18], inactive: 0.092; under setting [19], inactive: 0.0238; under setting [20], inactive: 0.0041.

As to `CC(=O)O[C@]1(C(C)=O)CC[C@H]2[C@@H]3C[C@H](C)C4=CC(=O)CC[C@]4(C)[C@H]3CC[C@@]21C`, the “cell viability (log2)” value reads like this: under setting [1], inactive: 0.059; under setting [2], inactive: -0.0147; under setting [3], inactive: 0.0251; under setting [4], inactive: 0.152.

Regarding `CC(C)NCC(O)c1ccc2ccccc2c1` (centres undefined), the “cell viability (log2)” value is, setting by setting: under setting [1], inactive: 0.144; under setting [2], inactive: 0.0682; under setting [3], inactive: 0.153; under setting [4], inactive: -0.0007.

As to `CN(C)c1nc(N(C)C)nc(N(C)C)n1`, the “cell viability (log2)” value runs as follows: (0.025 µM, library screen: screen2, EWS-FLI1 expression: high (no doxycycline)) inactive: 0.116; (0.025 µM, library screen: screen2, EWS-FLI1 expression: low (doxycycline-induced shRNA knockdown)) inactive: -0.0745; under setting [9], inactive: 0.0751; under setting [10], inactive: -0.0422; under setting [1], inactive: 0.139; under setting [2], inactive: 0.148. Further, the “cell viability (log2)” value under setting [5] was inactive: 0.0462; the “cell viability (log2)” value under setting [6] is inactive: 0.0478; the “cell viability (log2)” value under setting [11] is inactive: -0.025; the “cell viability (log2)” value under setting [12] was inactive: 0.0382; the “cell viability (log2)” value under setting [13] is inactive: -0.0382; the “cell viability (log2)” value under setting [14] was inactive: 0.1. Moreover, the “cell viability (log2)” value reads like this: under setting [3], inactive: 0.104; under setting [4], inactive: 0.206; under setting [7], inactive: 0.0387; under setting [8], inactive: 0.105; under setting [15], inactive: 0.0274; under setting [16], inactive: 0.0363. For the same compound, the “cell viability (log2)” value is, setting by setting: under setting [17], inactive: 0.042; under setting [18], inactive: 0.0579; (25 µM, library screen: screen2, EWS-FLI1 expression: high (no doxycycline)) inactive: 0.0787; (25 µM, library screen: screen2, EWS-FLI1 expression: low (doxycycline-induced shRNA knockdown)) inactive: 0.0521; under setting [19], inactive: 0.0237; under setting [20], inactive: 0.0542.

For the compound `Nc1ncnc2c1nc(Sc1ccc(Cl)cc1)n2[C@@H]1O[C@@H]2COP(=O)(O)O[C@H]2[C@H]1O`, the “cell viability (log2)” value reads like this: under setting [5], inactive: 0.202; under setting [6], inactive: 0.0851; under setting [7], inactive: 0.104; under setting [8], inactive: 0.103.

Values taken from the supplement of paper PMC6089552.
